Assay results taken from PubChem BioAssay AID686978 (National Center for Advancing Translational Sciences (NCATS), 2013).
Screen size: about 420,000 compounds; about 64,000 (15%) were called active. The shares of active, inactive and inconclusive entries below differ from those in the screen. The call rests on the fitted dose curve; in most records, active means well fitted inhibition curve with a large enough effect; inconclusive means small, poorly fitted or top-dose-only effect; inactive means flat fitted curve, though single readings scatter. No potency is given beside an inconclusive call; the fits are too rough.

Experiment: qHTS for Inhibitors of human tyrosyl-DNA phosphodiesterase 1 (TDP1): qHTS in cells in absence of CPT; further: nearly all actives have a fitted effect of over 55% in size
Settings: DT40 Tdp1-/- hTDP1 cells, no CPT, ATP luminescence, 48 h; activity change, negative = growth inhibition: at 46.2 µM (top of the series) unless noted
Outline: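 DT40 Tdp1-/-;hTDP1 cells, no CPT (DMSO vehicle only), 400 cells/well; compounds pin-transferred; ≥48 hr, 37 °C; CellTiter-Glo 30 min RT dark, luminescence read.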
On the % scale 0 is the no-effect control and ±100 the full control effect; potency means the concentration at half of the fitted maximal effect; tags describe the fitted curve by direction and shape.

| Compound | Potency | activity change, negative = growth inhibition |
| --- | --- | --- |
| COc1cc(/C=C(\C#N)C(=O)Nc2cccc(C(=O)O)c2)ccc1OCc1ccc(Cl)cc1 | inconclusive [inhibitor, partial curve, poor fit] | – |
| Cc1ccc(C(OCCN(C)C)c2cccc(C(F)(F)F)c2)cc1 (configuration not stated) | active: 23.1 µM | – |
| CCN(CC)c1ccc(NC(=O)c2cc(C)nc3c2c(C)nn3-c2cccc(F)c2)c(C)c1 | inconclusive [inhibitor, single point] | – |
| NC1=NC(c2ccc([N+](=O)[O-])cc2)N(c2ccc(F)cc2)C(N)=N1 (configuration not stated) | inconclusive [inhibitor, single point] | – |
| CCc1ccc(CN2CCC(Oc3ccc(C(=O)N4CCCCC4)cc3)CC2)cc1 | active: 14.6 µM | – |
| CCOc1ccc(CN2CCN(C/C=C/c3ccc(OC)cc3)CC2CCO)cc1 (configuration not stated) | inconclusive [inhibitor, partial curve, poor fit] | – |
| O=C1CC(N2CCC(c3nc4ccccc4s3)CC2)C(=O)N1 (configuration not stated) | – | inactive: -5.65% |
| O=C(Nc1nnc(C2CC2)s1)C1COc2ccccc2O1 (configuration not stated) | – | inactive: -1.54% |
| CCOc1ccccc1CNCc1c(C(=O)O)c(C)n(Cc2ccc(Cl)cc2)c1C | inconclusive [inhibitor, single point] | – |
| CCN(Cc1ccccc1)Cc1c(O)ccc2c(=O)c(-c3ccccc3)c(C(F)(F)F)oc12 | inconclusive [inhibitor, single point] | – |
| Cc1cccc(-n2nnnc2SCC(=O)c2cc(C)n(Cc3ccco3)c2C)c1 | inconclusive [inhibitor, single point] | – |
| COc1ccc(C(=O)Nc2cc(C(C)C)c(O)c(S(=O)(=O)c3ccc(Cl)cc3)c2C)cc1 | inconclusive [inhibitor, partial curve, poor fit] | – |
| O=C(NC1CCCC1)C1c2ccccc2OCC(=O)N1Cc1ccc2c(c1)OCO2 (configuration not stated) | inconclusive [inhibitor, partial curve] | – |
| Cc1[nH][nH]c(=O)c1C(c1ccc(-c2ccc(Cl)c(Cl)c2)o1)c1c(C)[nH][nH]c1=O | active: 2.59 µM | – |
| Cc1ccc2c(c1)nnn2C1CCN(CC(=O)Nc2ccccc2N2CCOCC2)CC1 | active: 23.1 µM | – |
| CC(C(=O)Nc1ccc(OCc2ccccc2)cc1)N1CCCC1 (configuration not stated) | inconclusive [inhibitor, single point] | – |
| O=C(OCC(=O)N1CCCCC1)c1c[nH]c2ccccc12 | – | inactive: -8.25% |
| NC(=O)CSc1nnc(-c2cccc(S(=O)(=O)N3CCCCC3)c2)o1 | inconclusive [inhibitor, single point] | – |
| O=Nc1ccc(NO)c2ccccc12 | active: 13 µM | – |
| COc1ccc(/C=C/C(=O)NC(=S)NNC(=O)c2cccnc2)cc1OC | – | inactive: -25.8% |
| CCCn1c(SCC(=O)Nc2ccc(S(=O)(=O)N(C)C)cc2)n[nH]c1=O | – | inactive: -3.33% |
| CN(C(=O)CN1C(=O)/C(=C/c2ccccc2F)SC1=S)C1CCS(=O)(=O)C1 (configuration not stated) | – | inconclusive: -32.2% [inhibitor] |
| O=C(Cc1ccc(Br)cc1)Nc1ncc([N+](=O)[O-])s1 | active: 13 µM | – |
| C[C@@H]1CN([C@@H](C)CO)S(=O)(=O)c2ccc(Br)cc2O[C@@H]1CN(C)C(=O)C1CC1 | inconclusive [inhibitor, single point] | – |

| Compound | Potency | activity change, negative = growth inhibition |
| --- | --- | --- |
| CSc1ccc(CNC(=O)c2ccc(NC(=O)c3nsc4ccccc34)cc2)cc1 | inconclusive [inhibitor, single point] | – |
| CC1(C)CC(=O)C2=C(C1)NC(Nc1nc3ccccc3o1)=NC21CCCC1 | – | inactive: -26.1% |
| CCc1ccc(N2CC(C(=O)N(CC)CC(=O)Nc3c(F)cccc3F)CC2=O)cc1 (configuration not stated) | inconclusive [inhibitor, single point] | – |
| O=C1CCC(C(=O)OCc2ccccc2)N1 (configuration not stated) | – | inactive: -1.88% |
| CCOc1ccc(/C(C)=N/N2C(=O)C(CC(=O)Nc3ccc(OC)cc3[N+](=O)[O-])SC2=Nc2cccc(C)c2C)cc1 (configuration not stated) | – | inactive: -0.756% |
| COc1cccc(CN2CCC2(C)C(=O)Nc2cccc(NS(C)(=O)=O)c2)c1OC (configuration not stated) | active: 23.1 µM | – |
| O=c1[nH]c(-c2ccccc2F)nc2c1sc(=S)n2Cc1ccccc1 | inconclusive [inhibitor, partial curve, poor fit] | – |
| CCOC(=O)c1c(C)nc2c(c1-c1ccccc1)C(=O)c1ccccc1-2 | inconclusive [inhibitor, single point] | – |
| Nc1c(C(=O)Nc2ccccc2)nnn1Cc1ccc(F)cc1Cl | – | inactive: -17.3% |
| COc1cc2c(cc1NC(=O)c1cccc(S(=O)(=O)N(C)C)c1)oc1ccccc12 | active: 14.6 µM | – |
| c1csc(-c2cn3c(n2)SCC3)c1 | – | inactive: -23.2% |
| Cc1ccc(CNS(=O)(=O)c2ccc(-c3cc(C(F)(F)F)on3)s2)cc1 | – | inactive: -19.5% |
| CCCOc1ccc(C(=O)c2nc3c(n2O)CCCCC3)cc1 | inconclusive [inhibitor, single point] | – |
| Cc1ccc(C(C[N+](=O)[O-])c2c(N)n(C)c(=O)n(C)c2=O)cc1 (configuration not stated) | active: 5.17 µM | – |
| O=C(CC1SC2=NCCN2C1=O)Nc1ccc(Cl)cc1 (configuration not stated) | – | inactive: 1.88% |
| CCN1CCN(C(=O)c2cc3cc4cc(OC)ccc4nc3s2)CC1 | inconclusive [inhibitor, partial curve, poor fit] | – |
| Cc1ccccc1OCC(=O)OCC(=O)NCCNC(=O)COC(=O)COc1ccccc1C | – | inactive: 0.419% |
| CCOc1ccccc1C(=O)Nc1nc2c(s1)CC(C)CC2 (configuration not stated) | active: 20.6 µM | – |
| CCS(=O)(=O)N1Cc2ccccc2CC1C(=O)N(C)Cc1ccc(OC)c(F)c1 (configuration not stated) | inconclusive [inhibitor, partial curve] | – |
| CSc1ccc(/C=C2\C=Cc3ccccc32)cc1 | inconclusive [inhibitor, single point] | – |
| COc1ccc(C(=O)Nn2c(CCC(=O)O)ccc2-c2ccc(C)cc2)cc1OC | inconclusive [inhibitor, single point] | – |
| CCOC(=O)C1CCCN(Cc2nc(N)nc(Nc3ccc(Cl)cc3)n2)C1 (configuration not stated) | active: 16.4 µM | – |
| Cc1c(C(=O)Nc2c(N)nc(SCC(=O)NCC3CCCO3)[nH]c2=O)cccc1[N+](=O)[O-] (configuration not stated) | – | inactive: 7.58% |
